Source: PMC5108317
These are yes or no findings as the source states them, for the method shown. In cells and extracts the contact can be indirect. Some binding calls cover weakened binding; strength is not graded here. Sequences can lack the tags named with a protein. Blank lines part the entries; values can stand above or below the molecule they belong to.

By UniProt entry, the sequences of proteins in these tests, tags left out. Where a name states a change or a piece, a line headed by the entry shows the natural chain unless it says otherwise. Residues count along the entry.
UniProt Q676U5: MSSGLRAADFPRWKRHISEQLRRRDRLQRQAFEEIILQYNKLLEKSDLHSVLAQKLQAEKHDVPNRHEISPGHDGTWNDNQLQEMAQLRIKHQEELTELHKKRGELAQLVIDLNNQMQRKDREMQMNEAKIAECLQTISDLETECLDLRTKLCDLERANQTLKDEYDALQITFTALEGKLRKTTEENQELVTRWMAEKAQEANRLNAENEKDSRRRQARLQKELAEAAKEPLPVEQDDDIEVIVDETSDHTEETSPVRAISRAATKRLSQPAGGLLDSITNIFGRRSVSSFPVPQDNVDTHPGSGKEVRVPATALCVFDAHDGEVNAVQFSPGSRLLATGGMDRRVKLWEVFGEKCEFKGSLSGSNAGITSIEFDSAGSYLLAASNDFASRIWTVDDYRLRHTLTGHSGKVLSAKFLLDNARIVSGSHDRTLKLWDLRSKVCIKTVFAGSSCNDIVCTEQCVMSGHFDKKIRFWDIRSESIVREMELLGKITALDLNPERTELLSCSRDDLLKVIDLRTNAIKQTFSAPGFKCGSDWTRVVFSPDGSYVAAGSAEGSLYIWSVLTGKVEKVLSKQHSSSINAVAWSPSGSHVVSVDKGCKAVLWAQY
FLAG-ATG16L1_(1)_(–300): residues 1-300 of Q676U5
UniProt O94817: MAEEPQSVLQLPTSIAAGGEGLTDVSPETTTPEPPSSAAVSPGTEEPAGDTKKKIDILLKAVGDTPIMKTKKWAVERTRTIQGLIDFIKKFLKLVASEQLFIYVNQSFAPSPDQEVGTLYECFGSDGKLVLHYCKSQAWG
UniProt Q6ZNE5: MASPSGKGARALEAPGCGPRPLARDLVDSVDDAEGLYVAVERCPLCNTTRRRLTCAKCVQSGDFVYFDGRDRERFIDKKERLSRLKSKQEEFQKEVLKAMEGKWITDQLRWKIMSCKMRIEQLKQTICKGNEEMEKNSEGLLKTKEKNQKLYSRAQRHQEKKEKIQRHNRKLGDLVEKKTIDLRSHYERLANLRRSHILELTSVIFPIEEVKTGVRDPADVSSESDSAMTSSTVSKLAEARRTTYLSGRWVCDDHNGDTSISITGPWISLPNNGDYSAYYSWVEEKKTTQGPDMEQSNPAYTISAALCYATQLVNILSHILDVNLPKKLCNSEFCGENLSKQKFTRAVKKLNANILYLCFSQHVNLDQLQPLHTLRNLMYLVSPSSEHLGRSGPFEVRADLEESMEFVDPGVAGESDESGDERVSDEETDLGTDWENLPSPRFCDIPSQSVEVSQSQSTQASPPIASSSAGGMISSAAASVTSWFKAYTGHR

Assays:
GST-EVA1A60–152 (human) = biological target: T1, GST-EVA1A60–152 (human) (UniProt Q9H8M9); assay: pull-down; GST or GST-EVA1A fusion proteins on glutathione-Sepharose 4B beads, mixed with whole-cell lysates of plasmid-transfected (HeLa) cells for 4 h at 4 °C, five washes, western blot; only the target purified
T1 sequence: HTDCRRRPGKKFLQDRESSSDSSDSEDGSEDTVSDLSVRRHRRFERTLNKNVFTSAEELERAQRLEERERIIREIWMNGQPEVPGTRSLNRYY

GST-EVA1A1–30 (human) = biological target: T2, GST-EVA1A1–30 (human) (UniProt Q9H8M9); assay: as above
T2 sequence: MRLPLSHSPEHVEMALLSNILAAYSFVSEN

FLAG-EVA1A60–152 (human) = biological target: T3, FLAG-EVA1A60–152 (human) (UniProt Q9H8M9); assay: co-IP; HeLa cells co-transfected for 24 h; total cell extracts in RIPA lysis buffer (1 mg per sample), IP with anti-FLAG or control mIgG and protein G sepharose, 4 h at 4 °C, five washes; GFP and FLAG detected by western blot
T3 sequence: T1 sequence

[1] = biological target: T4, full-length FLAG-EVA1A (human) (UniProt Q9H8M9); assay: as above
T4 sequence: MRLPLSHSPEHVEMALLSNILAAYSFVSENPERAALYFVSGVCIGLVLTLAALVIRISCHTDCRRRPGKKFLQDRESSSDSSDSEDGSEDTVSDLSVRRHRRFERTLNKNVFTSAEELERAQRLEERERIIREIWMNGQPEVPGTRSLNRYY

FLAG-ATG16L1_(1)_(–300) = FLAG-ATG16L1_(1)_(–300) (UniProt Q676U5); assay: as above

Molecule: GFP–ATG16L1 (from UniProt Q676U5 1-607)
binding (GST-EVA1A1–30 (human)): no binding | binding (GST-EVA1A60–152 (human)): binds | binding (FLAG-EVA1A60–152 (human)): binds | binding [1]: binds

B2: GFP-ZFYVE1/DFCP1 (protein, UniProt Q9HBF4 1-777)
chain: MSAQTSPAEKGLNPGLMCQESYACSGTDEAIFECDECCSLQCLRCEEELHRQERLRNHERIRLKPGHVPYCDLCKGLSGHLPGVRQRAIVRCQTCKINLCLECQKRTHSGGNKRRHPVTVYNVSNLQESLEAEEMDEETKRKKMTEKVVSFLLVDENEEIQVTNEEDFIRKLDCKPDQHLKVVSIFGNTGDGKSHTLNHTFFYGREVFKTSPTQESCTVGVWAAYDPVHKVAVIDTEGLLGATVNLSQRTRLLLKVLAISDLVIYRTHADRLHNDLFKFLGDASEAYLKHFTKELKATTARCGLDVPLSTLGPAVIIFHETVHTQLLGSDHPSEVPEKLIQDRFRKLGRFPEAFSSIHYKGTRTYNPPTDFSGLRRALEQLLENNTTRSPRHPGVIFKALKALSDRFSGEIPDDQMAHSSFFPDEYFTCSSLCLSCGVGCKKSMNHGKEGVPHEAKSRCRYSHQYDNRVYTCKACYERGEEVSVVPKTSASTDSPWMGLAKYAWSGYVIECPNCGVVYRSRQYWFGNQDPVDTVVRTEIVHVWPGTDGFLKDNNNAAQRLLDGMNFMAQSVSELSLGPTKAVTSWLTDQIAPAYWRPNSQILSCNKCATSFKDNDTKHHCRACGEGFCDSCSSKTRPVPERGWGPAPVRVCDNCYEARNVQLAVTEAQVDDEGGTLIARKVGEAVQNTLGAVVTAIDIPLGLVKDAARPAYWVPDHEILHCHNCRKEFSIKLSKHHCRACGQGFCDECSHDRRAVPSRGWDHPVRVCFNCNKKPGDL
binding (GST-EVA1A60–152 (human)): no binding

The remaining lines, values ahead:

binding (GST-EVA1A60–152 (human)): binds weakly
Molecule: ATG12–ATG5 conjugates (from UniProt O94817 1-140; Q9H1Y0 1-275) (complex)

binding (GST-EVA1A60–152 (human)): no binding
Molecule: GFP-ATG14 (from UniProt Q6ZNE5 1-492)

binding (FLAG-ATG16L1_(1)_(–300)): no binding
B1: GFP-EVA1A (protein, UniProt Q9H8M9 1-152)
chain: T4 sequence
